PubChem BioAssay AID463173 (ICCB-Longwood Screening Facility, Harvard Medical School, 2010)
In all, about 52,000 compounds went through this assay and about 1,700 (3.3%) were called active. Rule as the data show it: active = survival mostly below about 52% (no sharp cut-off); inactive = mostly above about 56%. The list shows a part of the results.

Tested on: Wild type
Experiment: S. aureus survival, RN4220 and DeltatarO strains – OD600, teichoic acid synthesis inhibitors, primary screen (AID 463173)
Conditions: S. aureus RN4220 wild type/DeltatarO growth, OD600, 18 h, active compounds read low, screened at 18.75 µg/mL (by protocol)

SMILES	survival
O=C(CN1C(=O)COc2ccc(S(=O)(=O)N3CCOCC3)cc21)N1CCN(c2ccc(Cl)cc2)CC1	inactive: 81%
CCCCCCc1cc2cc(-c3cn4c(n3)sc3cc(OC)ccc34)c(=O)oc2cc1O	inactive: 87%
Cc1ccccc1C(=O)n1nc(-c2cccnc2)nc1NCc1ccc(F)cc1	inactive: 84%
CCN(CCCNC(=O)Cn1ncc2c3ccccc3n(C)c2c1=O)c1cccc(C)c1	inactive: 87%
COc1cc(OC)c(NC(=O)Cn2cnc3c(nc4n3CCCCC4)c2=O)cc1Cl	inactive: 59%
O=C(NCCN1CCCC1)c1ccco1	inactive: 95%
O=C(Nc1cccc(Cl)c1)c1cc(S(=O)(=O)N2CCC3(CC2)OCCO3)ccc1F	inactive: 121%
Cc1nc(SCC(N)=O)c2c3c(sc2n1)CCCC3	inactive: 90%
CCOC(=O)c1ccccc1NC(=O)COc1cc(=O)n(CC)c2ccccc12	inactive: 63%
Cc1cc(OCC(=O)Nc2nc3c(s2)CCCC3)cc(C)c1Cl	inactive: 82%
Cc1ccc(-n2ncc3c(N4CCCCC4)ncnc32)cc1	inactive: 76%
Cc1cccc(C)c1NC(=O)Cn1c(=O)cc(C)c2c(C)nn(-c3cccc(Cl)c3C)c21	inactive: 92%
COc1ccc(Cl)cc1NC(=O)c1sc2nc3c(cc2c1N)CN(C)CC3	inactive: 81%
O=C(CCC1N=C2c3ccccc3N=C(SCc3ccc(Cl)cc3)N2C1=O)NC1CCCCC1 (centres undefined)	inactive: 71%
CCOc1ccccc1NC(=O)Cn1c(=O)n(Cc2ccccc2)c(=O)c2c3c(sc21)CN(C(C)=O)CC3	inactive: 84%
O=C(CN1CCN(C2CCCCC2)C(=O)C1=O)Nc1ccc(Cl)cc1	inactive: 93%
CC(C)CCN1C(=O)c2ccccc2CC1(C)C(=O)NC1CCCCC1 (centres undefined)	inactive: 96%
CCC(=O)Nc1ccccc1C(=O)OCc1cc(=O)n2cc(C)sc2n1	inactive: 78%
O=C(NC1C2CC3CC(C2)CC1C3)c1cccnc1 (centres undefined)	inactive: 94%
COc1ccc(OC)c(NC(=O)Cn2c(CCC(=O)O)ccc2-c2ccccc2)c1	inactive: 104%
COc1cc(C(C(=O)NC2CCCCC2)N(Cc2ccco2)C(=O)c2cnccn2)cc(OC)c1OC (centres undefined)	inactive: 115%
Cc1ccc(-c2nn(CO)c(=S)o2)cc1	inactive: 91%
CCCN1CCN(C(=O)Cn2ncc3c4ccccc4n(Cc4cccc(Cl)c4)c3c2=O)CC1	inactive: 80%

SMILES	survival
CC1CC(=O)N(CC(=O)Nc2ccc(OC(F)(F)F)cc2)c2ccccc2S1 (centres undefined)	inactive: 89%
CCOc1ccc(-n2nc3ccc(NC(=O)c4ccc(C)cc4C)cc3n2)cc1	inactive: 95%
Cc1ccc(CCNC(=O)c2cc3cc(S(=O)(=O)N4CCCCC4)ccc3n2C)cc1	inactive: 72%
Cc1cccc(N(C)C(=O)c2cc3c(=O)oc4ccc(C)cc4c3s2)c1	inactive: 120%
COC(=O)c1ccc(C(=O)OC)c(NC(=O)c2cnn3c(C(F)F)cc(-c4ccc(C)cc4)nc23)c1	inactive: 73%
CCN1CCOC(=O)C1CC(=O)Nc1cc(Cl)ccc1C (centres undefined)	inactive: 53%
CCN1CCN(CCCNC(=O)c2cnn(-c3ccc(OC)cc3)c2C2CCN(C(=O)OC(C)(C)C)CC2)CC1	inactive: 78%
CCOC(=O)c1cccc(NC(=O)CC2C(=O)N(c3ccc(F)cc3)C(=O)N2Cc2cccc(OC)c2)c1 (centres undefined)	inactive: 74%
CC1=Nc2cc(C(=O)NC3CCCC3)ccc2Sc2ccc(Cl)cc21	inactive: 73%
CCOC(=O)c1ccc(Nc2nc3ccccc3n3c(C)nnc23)cc1	inactive: 84%
CCC(c1nnnn1C1CCCC1)N(Cc1cccs1)Cc1cc2cccc(C)c2[nH]c1=O (centres undefined)	inactive: 117%
CCOc1ccc(-c2noc(CSc3nnc(Cc4ccccc4)n3-c3ccc(F)cc3)n2)cc1	inactive: 65%
CCOCCc1nn2c(=O)cc(COC(=O)c3ccccc3NC(=O)CC(C)C)nc2s1	inactive: 70%
CC(C)CN(CC(C)C)S(=O)(=O)c1ccc(C(=O)Nc2sc3c(c2C(N)=O)CCN(C(C)C)C3)cc1	inactive: 80%
COc1ccc(N(C)S(=O)(=O)c2ccc3c(c2)n(C)c(=O)c(=O)n3C)cc1	inactive: 83%
COc1cccc(C(=O)Nc2c3c(nn2-c2ccc(C)cc2C)CS(=O)(=O)C3)c1OC	inactive: 136%
O=C(Cn1c(-c2cccs2)cc2cc(F)ccc21)N1CCCCC1	inactive: 72%
Cc1cccc(N2CCN(c3ncnc4c3cnn4-c3ccc(Cl)cc3)CC2C)c1 (centres undefined)	inactive: 83%
O=C(O)c1cc(-c2ccccc2)on1	inactive: 100%
COC(=O)c1scc(-c2ccc(C)cc2)c1S(=O)(=O)N1CCN(c2ccccc2F)CC1	inactive: 133%
O=c1c2ccccc2nc(-c2ccccc2)n1CCCn1ccnc1	inactive: 113%
COc1ccc(CNC(=O)Cn2ncc3c(=O)oc4ccc(C)cc4c32)c(OC)c1	inactive: 113%
Cn1nnnc1SCC(=O)OC1CCCCC1	inactive: 88%

SMILES	survival
Cc1cc(=O)n2[nH]c(NC(=O)c3cccc(Cl)c3)nc2n1	inactive: 89%
COc1ccccc1CCNC(=O)CCCn1c(=O)c2cccn2c2cccnc21	inactive: 80%
CC1=Nc2cc(C(=O)N3CCCCC3)ccc2Sc2ccc(C)cc21	active: 3%
Cc1c(C(=O)NCc2ccc(OC(C)C)cc2)sc2ncnc(N(C)C3CCCCC3)c12	inactive: 73%
CCCC(=O)Nc1nnc(SCc2cc(=O)n3cccc(C)c3n2)s1	inactive: 99%
COc1ccc(-c2nc(CN3CCC(C(=O)NCc4ccc(F)cc4)CC3)c(C)o2)cc1OC	inactive: 83%
CCOC(=O)c1c(NC(=O)/C=C/c2ccc(Cl)cc2)sc2c1CCC(C)C2 (centres undefined)	inactive: 55%
COc1ccc(CCC(=O)NC2CC(=O)N(c3ccccc3)C2)cc1 (centres undefined)	inactive: 131%
O=C(NCC(c1ccc2c(c1)OCO2)N1CCN(c2ccccc2F)CC1)c1ccccc1F (centres undefined)	inactive: 83%
O=c1[nH]cnc2nc3c4ccccc4c4ccccc4c3nc12	inactive: 112%
CCOC(=O)c1c(C)oc2nc(C)nc(N3CCN(c4cccc(C(F)(F)F)c4)CC3)c12	inactive: 71%
COc1ccc(C2CC(=O)N(CC(=O)Nc3ccc(C(C)=O)cc3)c3ccccc3S2)cc1OC (centres undefined)	inactive: 93%
CCCN(CCC)CCNC(=O)c1nn(C)c2c1CS(=O)(=O)c1ccccc1-2	inactive: 93%
Cc1ccccc1C(=O)n1nc(-c2ccco2)nc1NCc1cccs1	inactive: 84%
Cc1ccc2[nH]c(CSc3nnc(NC(=O)COc4ccc(F)cc4)s3)cc(=O)c2c1	inactive: 81%
CCCCc1nc2c(nnn2Cc2ccccc2)c(=O)[nH]1	inactive: 104%
COc1cc(Cl)c(C)cc1NC(=O)c1nn(C)c2c1CSc1ccccc1-2	inactive: 85%
O=C(NCc1nc(-c2ccccc2)no1)c1ccco1	inactive: 82%
O=C(CCCCn1c(=O)c2ccccc2n(Cc2cccc(Cl)c2)c1=O)NCc1ccc2c(c1)OCO2	inactive: 98%
COc1ccc(CNC(=O)c2cc(-c3ccc(Cl)cc3)n[nH]2)cc1	inactive: 74%
Cc1ccc2c(c1)N(CC(=O)N(Cc1cccnc1)C1CCCC1)C(=O)C(C)O2 (centres undefined)	inactive: 111%
CCn1cc(C(=O)NCCc2ccccc2)c(=O)c2cc(S(=O)(=O)N3CCc4ccccc4C3)ccc21	inactive: 89%
O=S(=O)(NCCc1csc2nc(-c3ccc(Cl)cc3)nn12)c1ccc2c(c1)OCCO2	inactive: 75%

SMILES	survival
CCCN(CCC)CCCNC(=O)c1cn(C)c2ccc(S(=O)(=O)N3CCOCC3)cc2c1=O	inactive: 83%
CCCn1c2ccccc2c2cnn(CC(=O)NCCCN(Cc3ccccc3)C(C)C)c(=O)c21	inactive: 78%
CC(C)c1ccc(NC(=O)CN2C(=O)COc3ccc(S(=O)(=O)N4CCOCC4)cc32)cc1	inactive: 94%
COc1ccc(CCNc2nc(SCc3cccc(F)c3)nc3ccccc23)cc1OC	inactive: 80%
CNC(=O)C1C2C=CC3(O2)C1C(=O)N(C1CC1)C3C(=O)NCc1ccc(OC)cc1 (centres undefined)	inactive: 100%
COc1ccc(-c2cc(C)no2)cc1S(=O)(=O)N1CCOc2ccc(Cl)cc21	inactive: 76%
CCCN1CCN(c2cc(-c3ccccc3)nc3cc(-c4cccc(F)c4)nn23)CC1	inactive: 89%
COc1ccc(Nc2cc(C(=O)NCCCN(C)C3CCCCC3)c3ccccc3n2)c(OC)c1	inactive: 92%
COC(=O)c1ccc2c(=O)n(CCCCCC(=O)NCc3ccc(OC)cc3)c(=O)[nH]c2c1	inactive: 70%
Cc1nn(-c2ccc(N3CCOCC3)nn2)c(C)c1CCC(=O)Nc1ccc(F)cc1F	inactive: 136%
O=C(Nc1ccc(NC(=O)c2ccccc2F)cn1)c1ccco1	inactive: 101%
COc1ccc(NC(=O)C2CCCN(S(=O)(=O)c3c(C)[nH]c(=O)[nH]c3=O)C2)cc1Cl (centres undefined)	inactive: 84%
O=C(CSc1nccn1Cc1ccc(Cl)cc1)Nc1ccc2c(c1)OCO2	inactive: 78%
Cc1ccc(C)c(NC(=O)c2ccc3c(c2)CCN3S(=O)(=O)c2ccccc2)c1	inactive: 83%
CCC(Sc1nc2ncccc2o1)C(=O)Nc1cccc(C)c1 (centres undefined)	inactive: 56%
O=c1[nH]cnc2c1nnn2Cc1ccccc1F	inactive: 92%
COc1ccc2oc(=O)c(-c3nc(-c4ccc(C)c(C)c4)cs3)cc2c1	inactive: 81%
O=C(Nc1ccc(Cl)c(C(F)(F)F)c1)C(Cc1ccccc1)NS(=O)(=O)c1cccc2nsnc12 (centres undefined)	inactive: 61%
Cc1cc(C)cc(OCCSc2nc(-c3cccs3)nc3cc(=O)[nH]n23)c1	inactive: 60%
CCc1cc2c(cc3c(=O)n(CC(=O)NCCc4ccccc4)ncn32)s1	inactive: 85%
